According to the supplement of paper PMC10369915:
The other results are listed elsewhere or left out. No stated cut-off is given here; in the data, active = 3.2 or more and inactive = the rest. Most of these values are background signal.

Assays:
Experiment in all cases: enrichment score (SH2-bound / input frequency) (ratio); bacterial display of known human phosphotyrosine sites (pTyr-Var adds point mutants) read by sequencing; higher = stronger binding; tyrosines were phosphorylated by kinases first
Conditions in all cases: peptide library: pTyr-Var
SHP2 C-SH2 domain E139D = target: SHP2 C-SH2 domain E139D
[1] = target: SHP2 C-SH2 domain wild-type
SHP2 N-SH2 domain L43F = target: SHP2 N-SH2 domain L43F
SHP2 N-SH2 domain T42A = target: SHP2 N-SH2 domain T42A
SHP2 N-SH2 domain T52S = target: SHP2 N-SH2 domain T52S
[2] = target: SHP2 N-SH2 domain wild-type

Measured: enrichment score
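Further: displayed peptides selected on beads carrying the immobilized SH2 domain, with library peptides lacking any tyrosine serving as negative controls.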

YSSLGYPPPEG [ZSWIM4_Y87]
inactive: SHP2 C-SH2 domain E139D 1.15 | [1] 3.19 | SHP2 N-SH2 domain L43F 0.809 | SHP2 N-SH2 domain T42A 1.36 | SHP2 N-SH2 domain T52S 0.921 | [2] 0.773

FSSLGYPPPEG [ZSWIM4_Y87_YF]
inactive: SHP2 C-SH2 domain E139D 0.743 | [1] 0.785 | SHP2 N-SH2 domain L43F 0.93 | SHP2 N-SH2 domain T42A 0.758 | SHP2 N-SH2 domain T52S 0.661 | [2] 0.836

APEVIYATPGA [ABLtide_2014]
inactive: SHP2 C-SH2 domain E139D 0.833 | [1] 0.936 | SHP2 N-SH2 domain L43F 0.83 | SHP2 N-SH2 domain T42A 0.703 | SHP2 N-SH2 domain T52S 0.828 | [2] 0.966

AEEEIYGIFGA [SRCtide_2014]
inactive: SHP2 C-SH2 domain E139D 0.971 | [1] 1.66 | SHP2 N-SH2 domain L43F 1.23 | SHP2 N-SH2 domain T42A 1.08 | SHP2 N-SH2 domain T52S 1.4 | [2] 1.82

AHPIIYDIIEA [PYKtide_D_2014]
inactive: SHP2 C-SH2 domain E139D 1.69 | [1] 1.38 | SHP2 N-SH2 domain L43F 1.39 | SHP2 N-SH2 domain T42A 1.69 | SHP2 N-SH2 domain T52S 1.47 | [2] 1.48

ARAFIYAIIPA [ACKtide_2014]
inactive: SHP2 C-SH2 domain E139D 1.5 | [1] 1.86 | SHP2 N-SH2 domain L43F 1.5 | SHP2 N-SH2 domain T42A 1.34 | SHP2 N-SH2 domain T52S 1.55 | [2] 1.77

ADEEFYEIIAA [FEStide_F_2014]
inactive: SHP2 C-SH2 domain E139D 2.08 | [1] 1.67 | SHP2 N-SH2 domain L43F 1.66 | SHP2 N-SH2 domain T42A 1.56 | SHP2 N-SH2 domain T52S 1.57 | [2] 1.69

GGQDVYGDFGG [Probound]
inactive: SHP2 C-SH2 domain E139D 0.716 | [1] 0.636 | SHP2 N-SH2 domain L43F 0.646 | SHP2 N-SH2 domain T42A 0.716 | SHP2 N-SH2 domain T52S 0.657 | [2] 0.729

GDEEDYFEIPG [EGFR_opt_F_2015]
inactive: SHP2 C-SH2 domain E139D 0.702 | [1] 0.61 | SHP2 N-SH2 domain L43F 0.827 | SHP2 N-SH2 domain T42A 0.637 | SHP2 N-SH2 domain T52S 0.517 | [2] 0.866

GDEEDYEEIPG [EGFR_opt_E_2015]
inactive: SHP2 C-SH2 domain E139D 0.9 | [1] 0.574 | SHP2 N-SH2 domain L43F 0.425 | SHP2 N-SH2 domain T42A 0.736 | SHP2 N-SH2 domain T52S 0.471 | [2] 0.54

LGRTVYADCLA [ABCA4_Y2063_L2060R]
inactive: SHP2 C-SH2 domain E139D 1.11 | [1] 1.72 | SHP2 N-SH2 domain L43F 1.23 | SHP2 N-SH2 domain T42A 3.03 | SHP2 N-SH2 domain T52S 1.41 | [2] 1.3

FETVKYINNER [ABCB7_Y345_F346I_YF]
inactive: SHP2 C-SH2 domain E139D 0.918 | [1] 0.906 | SHP2 N-SH2 domain L43F 0.869 | SHP2 N-SH2 domain T42A 1.79 | SHP2 N-SH2 domain T52S 0.857 | [2] 0.966

VEKGSYSALLA [ABCC2_Y845]
inactive: SHP2 C-SH2 domain E139D 0.99 | [1] 0.682 | SHP2 N-SH2 domain L43F 0.599 | SHP2 N-SH2 domain T42A 0.491 | SHP2 N-SH2 domain T52S 0.667 | [2] 0.545

NLSVHYDSSLK [ABCC8_Y1353_R1352H]
inactive: SHP2 C-SH2 domain E139D 0.918 | [1] 1.06 | SHP2 N-SH2 domain L43F 0.86 | SHP2 N-SH2 domain T42A 0.836 | SHP2 N-SH2 domain T52S 0.847 | [2] 1

NLSVPYDSSLK [ABCC8_Y1353_R1352P]
inactive: SHP2 C-SH2 domain E139D 0.549 | [1] 0.553 | SHP2 N-SH2 domain L43F 0.541 | SHP2 N-SH2 domain T42A 0.551 | SHP2 N-SH2 domain T52S 0.529 | [2] 0.617

FSQETYFRVSN [ABCD1_Y180_Q178E_YF]
inactive: SHP2 C-SH2 domain E139D 1.43 | [1] 1.1 | SHP2 N-SH2 domain L43F 0.942 | SHP2 N-SH2 domain T42A 1.12 | SHP2 N-SH2 domain T52S 0.989 | [2] 1.19

FSQQTYCRVSN [ABCD1_Y180_Y181C]
inactive: SHP2 C-SH2 domain E139D 0.995 | [1] 0.886 | SHP2 N-SH2 domain L43F 0.792 | SHP2 N-SH2 domain T42A 0.801 | SHP2 N-SH2 domain T52S 0.856 | [2] 0.776

EGELRYMHSRV [ABCD1_Y281_K276E]
inactive: SHP2 C-SH2 domain E139D 0.829 | [1] 0.779 | SHP2 N-SH2 domain L43F 0.866 | SHP2 N-SH2 domain T42A 0.591 | SHP2 N-SH2 domain T52S 0.843 | [2] 0.921

RNAAEYLLSSG [ABL1_Y139]
inactive: SHP2 C-SH2 domain E139D 1.25 | [1] 0.723 | SHP2 N-SH2 domain L43F 1.25 | SHP2 N-SH2 domain T42A 0.672 | SHP2 N-SH2 domain T52S 0.743 | [2] 0.994

NKPTVCGVSPN [ABL1_Y226_Y226C]
inactive: SHP2 C-SH2 domain E139D 0.859 | [1] 0.692 | SHP2 N-SH2 domain L43F 0.726 | SHP2 N-SH2 domain T42A 0.578 | SHP2 N-SH2 domain T52S 0.899 | [2] 0.783

LLASRYDSPIN [ABLIM1_Y638]
inactive: SHP2 C-SH2 domain E139D 0.958 | [1] 0.957 | SHP2 N-SH2 domain L43F 0.953 | SHP2 N-SH2 domain T42A 0.812 | SHP2 N-SH2 domain T52S 1.05 | [2] 1.02

LLASGYDSPIN [ABLIM1_Y638_R637G]
inactive: SHP2 C-SH2 domain E139D 0.924 | [1] 1.16 | SHP2 N-SH2 domain L43F 1.1 | SHP2 N-SH2 domain T42A 0.647 | SHP2 N-SH2 domain T52S 0.902 | [2] 0.828

EMTAEYTCTRK [ACAD9_Y325_A326T]
inactive: SHP2 C-SH2 domain E139D 0.691 | [1] 0.908 | SHP2 N-SH2 domain L43F 0.44 | SHP2 N-SH2 domain T42A 0.825 | SHP2 N-SH2 domain T52S 0.947 | [2] 1.02

RVNSAYQDKVS [ACAN_Y100]
inactive: SHP2 C-SH2 domain E139D 0.661 | [1] 0.642 | SHP2 N-SH2 domain L43F 0.763 | SHP2 N-SH2 domain T42A 0.544 | SHP2 N-SH2 domain T52S 0.888 | [2] 0.947

EVKEAYMGNVL [ACAT1_Y90]
inactive: SHP2 C-SH2 domain E139D 0.785 | [1] 0.711 | SHP2 N-SH2 domain L43F 1.28 | SHP2 N-SH2 domain T42A 0.779 | SHP2 N-SH2 domain T52S 0.828 | [2] 0.851

IRDENYGEGSS [ACO2_Y665_G661R]
inactive: SHP2 C-SH2 domain E139D 0.41 | [1] 0.437 | SHP2 N-SH2 domain L43F 0.403 | SHP2 N-SH2 domain T42A 0.328 | SHP2 N-SH2 domain T52S 0.467 | [2] 0.598

RAHARYCADAR [ACOT4_Y52]
inactive: SHP2 C-SH2 domain E139D 0.654 | [1] 0.55 | SHP2 N-SH2 domain L43F 0.551 | SHP2 N-SH2 domain T42A 0.393 | SHP2 N-SH2 domain T52S 0.518 | [2] 0.636

GPKFGYDEIDN [ACOX1_Y232]
inactive: SHP2 C-SH2 domain E139D 0.627 | [1] 0.588 | SHP2 N-SH2 domain L43F 0.648 | SHP2 N-SH2 domain T42A 0.665 | SHP2 N-SH2 domain T52S 0.701 | [2] 0.658

GPKFVYDEIDN [ACOX1_Y232_G231V]
inactive: SHP2 C-SH2 domain E139D 0.567 | [1] 0.538 | SHP2 N-SH2 domain L43F 0.708 | SHP2 N-SH2 domain T42A 1.24 | SHP2 N-SH2 domain T52S 0.735 | [2] 0.66

IIEDPYYGNDF [ACP1_Y132_S137F]
inactive: SHP2 C-SH2 domain E139D 0.612 | [1] 0.868 | SHP2 N-SH2 domain L43F 0.622 | SHP2 N-SH2 domain T42A 0.572 | SHP2 N-SH2 domain T52S 0.715 | [2] 0.68

IEDPFYGNDFD [ACP1_Y133_S137F_YF]
inactive: SHP2 C-SH2 domain E139D 0.76 | [1] 0.696 | SHP2 N-SH2 domain L43F 0.817 | SHP2 N-SH2 domain T42A 0.515 | SHP2 N-SH2 domain T52S 0.609 | [2] 0.854

FKDGQYWIRGW [ACSF3_Y466_R471W]
inactive: SHP2 C-SH2 domain E139D 1.02 | [1] 1.14 | SHP2 N-SH2 domain L43F 0.783 | SHP2 N-SH2 domain T42A 0.843 | SHP2 N-SH2 domain T52S 0.9 | [2] 0.941

PVLSLYASGRT [ACTA1_Y145_A140P]
inactive: SHP2 C-SH2 domain E139D 1.13 | [1] 0.843 | SHP2 N-SH2 domain L43F 0.961 | SHP2 N-SH2 domain T42A 0.774 | SHP2 N-SH2 domain T52S 1.02 | [2] 1.26

PIFEGYALPHA [ACTA1_Y171_YF]
inactive: SHP2 C-SH2 domain E139D 0.972 | [1] 0.777 | SHP2 N-SH2 domain L43F 0.686 | SHP2 N-SH2 domain T42A 0.779 | SHP2 N-SH2 domain T52S 0.86 | [2] 0.621

CDLTDYLMKIL [ACTA1_Y190_R185C]
inactive: SHP2 C-SH2 domain E139D 1.7 | [1] 2.02 | SHP2 N-SH2 domain L43F 1.42 | SHP2 N-SH2 domain T42A 1.55 | SHP2 N-SH2 domain T52S 1.17 | [2] 1.9

GDLTDYLMKIL [ACTA1_Y190_R185G]
inactive: SHP2 C-SH2 domain E139D 1.97 | [1] 1.82 | SHP2 N-SH2 domain L43F 1.48 | SHP2 N-SH2 domain T42A 1.59 | SHP2 N-SH2 domain T52S 2.01 | [2] 1.45

SDLTDYLMKIL [ACTA1_Y190_R185S]
inactive: SHP2 C-SH2 domain E139D 1.7 | [1] 1.72 | SHP2 N-SH2 domain L43F 1.7 | SHP2 N-SH2 domain T42A 1.52 | SHP2 N-SH2 domain T52S 1.58 | [2] 1.67
